Results on 46 compounds are retold here after paper PMC4336329 (PLoS ONE, 2015).

The whole screen tested about 310,000 compounds, of which about 14,000 (4.5%) showed an effect of 50% or more. Effects have a minus sign here. The list shows a part of the results.
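Further: peak tail current of the secondary pulse compared with the same well before compound.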

The target of this assay is human ether-à-go-go-related gene (hERG) potassium channel (human, UniProt Q12809). Put plainly: primary screen, population patch clamp on CHO cells stably expressing hERG.
Chain of human ether-à-go-go-related gene (hERG) potassium channel (Q12809 whole entry, looked up): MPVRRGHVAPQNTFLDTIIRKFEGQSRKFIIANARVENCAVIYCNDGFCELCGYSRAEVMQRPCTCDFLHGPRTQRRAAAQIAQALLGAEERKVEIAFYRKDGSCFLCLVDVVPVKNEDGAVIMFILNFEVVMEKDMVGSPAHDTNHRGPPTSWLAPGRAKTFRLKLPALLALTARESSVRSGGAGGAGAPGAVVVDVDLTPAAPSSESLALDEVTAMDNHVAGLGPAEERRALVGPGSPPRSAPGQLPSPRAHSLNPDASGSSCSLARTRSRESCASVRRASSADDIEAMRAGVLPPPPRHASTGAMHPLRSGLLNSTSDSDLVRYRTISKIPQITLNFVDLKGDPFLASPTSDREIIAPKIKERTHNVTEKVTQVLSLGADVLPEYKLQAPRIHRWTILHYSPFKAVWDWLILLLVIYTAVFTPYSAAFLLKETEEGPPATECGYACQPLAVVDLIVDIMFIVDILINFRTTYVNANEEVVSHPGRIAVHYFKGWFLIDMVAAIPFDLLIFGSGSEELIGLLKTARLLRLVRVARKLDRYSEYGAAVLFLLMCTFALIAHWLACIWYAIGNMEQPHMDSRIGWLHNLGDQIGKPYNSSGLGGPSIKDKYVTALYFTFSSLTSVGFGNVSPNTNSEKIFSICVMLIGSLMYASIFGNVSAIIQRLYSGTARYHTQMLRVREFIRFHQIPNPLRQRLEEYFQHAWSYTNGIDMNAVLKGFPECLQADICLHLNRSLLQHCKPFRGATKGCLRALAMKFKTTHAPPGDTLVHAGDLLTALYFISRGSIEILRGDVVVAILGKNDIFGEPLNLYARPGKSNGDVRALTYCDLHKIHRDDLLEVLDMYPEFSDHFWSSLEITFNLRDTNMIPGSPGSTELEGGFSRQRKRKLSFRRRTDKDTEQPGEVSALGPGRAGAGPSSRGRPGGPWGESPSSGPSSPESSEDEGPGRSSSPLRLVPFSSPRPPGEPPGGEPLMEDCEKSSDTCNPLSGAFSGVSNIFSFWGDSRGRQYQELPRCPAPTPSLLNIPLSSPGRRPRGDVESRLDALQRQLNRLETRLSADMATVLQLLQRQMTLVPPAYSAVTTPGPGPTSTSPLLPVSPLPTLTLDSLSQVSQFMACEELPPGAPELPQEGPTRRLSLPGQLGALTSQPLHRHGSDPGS
Consider `Cc1cc(OCCCC(=O)NCc2cccs2)ccc1Cl`, for which the “hERG current change (%, negative = inhibition) at 10uM” value is given as 12.6%.
For `CCCCN(C(=O)Cn1nnc2ccccc21)C(C(=O)NCCOC)c1ccccc1` (stereo not shown), the “hERG current change (%, negative = inhibition) at 10uM” value worked out at 8.49%.
As to `CC(C)(C)CC(=O)NC(=S)NCCc1ccccc1`, the “hERG current change (%, negative = inhibition) at 10uM” value was -11.2%.
Consider `CC1CN(S(=O)(=O)c2ccc(C(=O)Nc3ccc(S(=O)(=O)Nc4nccs4)cc3)cc2)CC(C)O1` (stereo not shown), for which the “hERG current change (%, negative = inhibition) at 10uM” value was 10.4%.
Turning to `CCOC(=O)c1ccc(CSc2nnc(-c3ccncc3)n2N)cc1`, the “hERG current change (%, negative = inhibition) at 10uM” value is -4.81%.
Turning to `O=C(O)C(=O)O.OC(CON=C1c2ccccc2-c2ccccc21)CN1CCNCC1` (stereo not shown), the “hERG current change (%, negative = inhibition) at 10uM” value is listed as -25.4%.
The result for `Cc1cc(C)n2[nH]c(=O)c(N=Nc3cccc(Cl)c3)c2n1` reads -22%; that for `C/C(=N/OC(=O)c1ccc(Br)cc1)c1ccc(C)cc1`, 19%; that for `CCOc1ccccc1OCCCCOc1ccccc1F`, -8.69%.
Take `O=S(=O)(ON(c1ccccc1)S(=O)(=O)c1ccccc1)c1ccccc1`: the “hERG current change (%, negative = inhibition) at 10uM” value is listed as -10.9%.
On to `Cc1ccccc1N=Nc1ccc(O)c2ncccc12`, for which the “hERG current change (%, negative = inhibition) at 10uM” value is 18.9%.
In the case of `Cc1cc(C)c(NC(=S)NC(CO)(CO)CO)c(C)c1`, the “hERG current change (%, negative = inhibition) at 10uM” value was found to be 12.2%.
The result for `CC(Sc1nccn1C)C(=O)Nc1ccc(C(N)=O)cc1` (stereo not shown) reads 12%; that for `COCc1cc(=O)[nH]c(N2CCN(c3ccccc3OC)CC2)n1`, -3.39%; that for `O=C(CSc1nc2c(c(=O)[nH]1)CCC2)Nc1cccc(F)c1`, -1.68%.
Regarding `O=C(NCC1CC1)c1onc(CSc2ccncc2)c1C(=O)NCC1CC1`, the “hERG current change (%, negative = inhibition) at 10uM” value is reported as -11.9%.
`O=C(CSc1nc(O)cc(=O)[nH]1)C1CC1`: the “hERG current change (%, negative = inhibition) at 10uM” value is given as 7.82%.
Turning to `CC(C)(C)c1nnc2sc(SCC(=O)NCc3ccco3)nn2c1=O`, the “hERG current change (%, negative = inhibition) at 10uM” value was -17%.
As to `COc1ccccc1NC(=O)c1ccccc1C(=O)Nc1ccccc1OC`, the “hERG current change (%, negative = inhibition) at 10uM” value is recorded as -21.6%.
The value for `O=C(COC(=O)COc1ccccc1Cc1ccccc1)Nc1cccnc1Cl` was 4.68%; that for `Cc1nnc(SCC(=O)NNC(=O)c2ccccc2)n1N` was 10.7%; that for `COc1ccc([C@H]2CC(=O)C=C(c3ccc4ccn(C)c4c3)C2)cc1` was 12.9%.
The result for `Cc1cc(C)c2nc(SCCc3ccccc3)nc(C)c2c1` reads -10.6%; that for `CCOc1ccccc1NC(=O)N1CCC(NC(=O)c2cccc(C)c2)CC1`, -26.4%.
On to `CC1CCCN(c2nc3c(c(=O)[nH]c(=O)n3C)n2CCSc2nc3ccccc3o2)C1` (stereo not shown), for which the “hERG current change (%, negative = inhibition) at 10uM” value was -12.6%.
Regarding `Cc1ccc([N+](=O)[O-])cc1NC(=O)C(C)N1CCCCC1` (stereo not shown), the “hERG current change (%, negative = inhibition) at 10uM” value worked out at 30.2%.
For the compound `COc1ccc(NC(=O)CN2C3CCC2CC(O)(c2cccnc2)C3)cc1OC` (stereo not shown), the “hERG current change (%, negative = inhibition) at 10uM” value is on record as 0.385%.
For `CCOC(=O)N1CCN(C(=O)C2CC(c3ccc(F)cc3)=NO2)CC1` (stereo not shown), the “hERG current change (%, negative = inhibition) at 10uM” value is reported as -20.6%.
Regarding `CCN(c1ccccc1)S(=O)(=O)c1ccc(C(=O)Nc2ncccc2O)cc1`, the “hERG current change (%, negative = inhibition) at 10uM” value is 3.02%.
The result for `Cc1cccc(OCc2nnc(N)s2)c1C` reads 14.6%; that for `Cc1cc(NC(=O)CCS(=O)(=O)c2nc(-c3ccccc3)cc(C(F)(F)F)n2)no1`, 0.488%.
For the compound `CCC(=O)c1cn(CC(=O)NCC2CCCO2)c2ccccc12` (stereo not shown), the “hERG current change (%, negative = inhibition) at 10uM” value was found to be 8.11%.
As for `CC(C)c1ccc(NC(=O)CSc2nc(-c3ccccc3F)nc3nc[nH]c23)cc1`, the “hERG current change (%, negative = inhibition) at 10uM” value is -3.4%.
Turning to `COc1cc2ccccc2cc1C(=O)Nc1ccc(CN2CCOCC2)cc1`, the “hERG current change (%, negative = inhibition) at 10uM” value is -1.54%.
`Cc1cc(=O)oc2cc(OCC(=O)N3CCCC(C)C3)ccc12` (stereo not shown): the “hERG current change (%, negative = inhibition) at 10uM” value is on record as -20.4%.
For `CCN(CC)S(=O)(=O)c1ccc(Cl)c(C(=O)Oc2cccc(-c3cnc4ccccc4n3)c2)c1`, the “hERG current change (%, negative = inhibition) at 10uM” value came out at 20.3%.
In the case of `Cc1cc2c3c(c1)C1(C(=O)N3C(C)(C)CC2C)C(C#N)=C(N)Oc2n[nH]c(C)c21` (stereo not shown), the “hERG current change (%, negative = inhibition) at 10uM” value is 6.31%.
On to `CCC(C)C1N=C(c2ccccc2)c2cc(Cl)ccc2N(CC(=O)NCc2ccco2)C1=O` (stereo not shown), for which the “hERG current change (%, negative = inhibition) at 10uM” value came out at 8.71%.
As to `O=C(Nc1ccc(N2CCCCC2)cc1)C1CCCN1S(=O)(=O)c1ccc(F)cc1` (stereo not shown), the “hERG current change (%, negative = inhibition) at 10uM” value was 8.1%.
The result for `Cc1cccc(N/C(N)=N/c2nc(C(F)(F)F)cc(=O)[nH]2)c1C` reads 9.5%; that for `CCOC(=O)N1CCN(C2CC(=O)N(c3ccc(C)cc3)C2=O)CC1` (stereo not shown), 1.62%; that for `CSCC(C)N1CCC(n2nccc2NC(=O)c2ccc3c(c2)OCO3)CC1` (stereo not shown), -2.95%.
As for `O=C(c1ccco1)N1CCN(Cc2csc(-c3ccccc3Cl)n2)CC1`, the “hERG current change (%, negative = inhibition) at 10uM” value was -64.9%.
The value for `N#CCC(=O)Nc1ccc(C(=O)OCC(=O)Nc2ccc3ccccc3c2)cc1` was 5.71%; that for `O=C(NC1CCN(C(=O)NCc2ccccc2)CC1)c1ccccc1` was 13.3%.
Regarding `Nc1ccc2c(c1)C(=O)C(=O)c1ccccc1-2`, the “hERG current change (%, negative = inhibition) at 10uM” value was -3.14%.
